{"source": "ChEMBL document CHEMBL4888484", "about": "“Replenishing the malaria drug discovery pipeline: Screening and hit evaluation of the MMV Hit Generation Library 1 (HGL1) against asexual blood stage Plasmodium falciparum ,using a nano luciferase reporter read-out” (2022)", "note": "Hit rate of the full screen: of about 150,000 compounds, about 540 (0.36%) showed an effect of 50% or more. The list shows a part of the results.", "data": [{"tested_on": "Plasmodium falciparum", "assay": "Primary screen in NF54 nanoGlo assay, in single point, at 2uM, 72h; a lower Z score goes with more inhibition", "format": "functional, Erythrocyte", "settings": "timepoint 72 hour", "units": {"% Inhibition": "%"}, "values": [{"smiles": "Cc1[nH]ncc1C(=O)N[C@@H]1C[C@H]1c1cccc(Cl)c1", "% Inhibition": 0, "Z score": -0.04}, {"smiles": "Cc1ccc(NC(=O)CN2C(=O)NC(=O)C2(C)C)cc1-c1ncco1", "% Inhibition": -6, "Z score": 0.75}, {"smiles": "O=C1CCc2cc(NC(=O)c3cccnc3)ccc2N1", "% Inhibition": -6, "Z score": 1.13}, {"smiles": "CCCn1c(C)nnc1CN1CCN(C(=O)N(C)C)CC1(C)C", "% Inhibition": 14, "Z score": -1.61}, {"smiles": "C[C@@H](Cn1cccn1)Nc1nc(C2CCCC2)nc2c1CCNCC2", "% Inhibition": -8, "Z score": 1.39}, {"smiles": "CCN1C[C@@H](c2ccccc2)CC2(CCN(Cc3nc(C(=O)OC)co3)CC2)C1", "% Inhibition": 2, "Z score": -0.25}, {"smiles": "CN1CC(NC(=O)CCc2cncn2C)C(c2ccccc2)C1", "note": "(configuration not stated)", "% Inhibition": -12, "Z score": 1.04}, {"smiles": "O=C(O)c1cccnc1Oc1cccc2cccnc12", "% Inhibition": 7, "Z score": -0.84}, {"smiles": "N#Cc1ccccc1-c1ccc(CN2CCO[C@H](c3cccnc3)C2)o1", "% Inhibition": 4, "Z score": -0.64}, {"smiles": "Cc1ccc(C(=O)N[C@@H](C)c2cccc(-n3cccn3)c2)cn1", "% Inhibition": -6, "Z score": 0.74}, {"smiles": "Cc1cccc(CN(C(=O)c2cc(CN3CCC(O)CC3)on2)C(C)C)c1", "% Inhibition": 0, "Z score": 0.02}, {"smiles": "COc1ccsc1C(=O)N1CC2(CN(C)C(=O)O2)C1", "% Inhibition": -7, "Z score": 1.17}, {"smiles": "Nc1cc(N2CCOCC2)c(Br)cn1", "% Inhibition": -5, "Z score": 0.65}, {"smiles": "COC(=O)c1coc([C@H](CO)NC(=O)C(C)(C)C)n1", "% Inhibition": -3, "Z score": 0.53}, {"smiles": "O=C1CCN(CC(=O)N[C@H](c2ccc(F)cc2)C2CCCC2)C(=O)N1", "% Inhibition": -8, "Z score": 0.83}, {"smiles": "C[C@H]1CCCCN1C(=O)c1cc(-c2ccc(C3CCCCC3)cc2)on1", "% Inhibition": -19, "Z score": 1.7}, {"smiles": "C[C@H]1CN(C(=O)Cn2cc(Cn3cccn3)nn2)CC(C)(C)O1", "% Inhibition": -4, "Z score": 0.58}, {"smiles": "Cc1noc(C)c1S(=O)(=O)N[C@H]1CCCc2c1cnn2C", "% Inhibition": -4, "Z score": 0.51}, {"smiles": "CC[C@H](NC(=O)NCCc1ccco1)c1nc(C)cs1", "% Inhibition": 4, "Z score": -0.5}, {"smiles": "COCCc1noc([C@H](C)NC(=O)c2ccc(C)c(C)c2)n1", "% Inhibition": -15, "Z score": 1.86}, {"smiles": "COc1ccccc1CNC(=O)c1cn2c(n1)COCC2", "% Inhibition": 1, "Z score": -0.24}, {"smiles": "COc1ccc(/C=C/c2nc(CCNc3ccccc3)no2)cc1", "% Inhibition": -9, "Z score": 0.97}, {"smiles": "O=C(NC1CCCCC1)[C@@H]1COC2(CCN(C(=O)c3ccco3)CC2)N1C(=O)c1ccccc1", "% Inhibition": 6, "Z score": -0.98}, {"smiles": "C#CCN(CCC#N)Cc1cccc(C)n1", "% Inhibition": 2, "Z score": -0.25}, {"smiles": "COCCCNC(=O)C[C@H]1NC(=O)c2ccccc2NC1=O", "% Inhibition": -8, "Z score": 0.99}, {"smiles": "COc1ccc(-c2nc(N(CCC(=O)Nc3ccccc3)Cc3ccccc3)c3ccccc3n2)cc1", "% Inhibition": -7, "Z score": 1.33}, {"smiles": "O=C(Cn1nc2c3cc(Cl)ccc3ncn2c1=O)Nc1ccccc1", "% Inhibition": 0, "Z score": 0}, {"smiles": "CCCCC(=O)N1CCC(C(=O)N[C@@H]2CCCC[C@H]2NC(=O)c2ccccc2C)CC1", "% Inhibition": -13, "Z score": 1.56}, {"smiles": "O=C(Nc1ccc2nc(N3CCCC3)sc2c1)c1ccc2[nH]cnc2c1", "% Inhibition": 2, "Z score": -0.3}, {"smiles": "O=C(c1ccc2[nH]ccc2c1)N1CC(N2C(=O)CNC2=O)C1", "% Inhibition": -7, "Z score": 1.33}, {"smiles": "COc1cc(C(=O)N2CCNC[C@H]2C(=O)Nc2ccc(F)cc2)ccn1", "% Inhibition": -6, "Z score": 0.86}, {"smiles": "O=C(CN1CCCN2CCC[C@H]2C1)N1CCCc2ccccc21", "% Inhibition": -9, "Z score": 1.11}, {"smiles": "CCCN(CC(=O)O)C(=O)c1cc(C)n(C(C)C)c1C", "% Inhibition": -1, "Z score": 0.18}, {"smiles": "CC(C)CNC(=O)C1Cc2cc(C(F)(F)F)ccc2N2CCN(CCOc3ccccc3)CC12", "note": "(configuration not stated)", "% Inhibition": -5, "Z score": 0.73}, {"smiles": "Cn1cnnc1CN1CCC2(CCC(=O)N(C3CC3)C2)CC1", "% Inhibition": -13, "Z score": 1.57}, {"smiles": "Clc1ccc(-c2nnc(-c3ccco3)c3nocc23)cc1", "% Inhibition": 3, "Z score": -0.41}, {"smiles": "CC(C)(C)C(=O)NCCn1ccc(-c2cccs2)n1", "% Inhibition": -10, "Z score": 1.26}, {"smiles": "OCC1OC(Nc2ccc(-c3ccc(NC4CC(O)C(CO)O4)cc3)cc2)CC1O", "note": "(configuration not stated)", "% Inhibition": -1, "Z score": 0.1}, {"smiles": "CC(=O)N(C)CC(=O)Nc1ccc(Oc2nc(C)cs2)c(F)c1", "% Inhibition": 27, "Z score": -3.04}, {"smiles": "Cc1n[nH]c(NCc2cccc(C3CC3)c2)c1C(N)=O", "% Inhibition": 6, "Z score": -1.03}, {"smiles": "Cc1cccc(Cn2ncnc2[C@@H](C)CN2CCCC2)c1", "% Inhibition": -19, "Z score": 1.77}, {"smiles": "CC1CCCN(C(=O)c2cc(Br)c(C(=O)N3CCCC(C)C3)cc2Br)C1", "note": "(configuration not stated)", "% Inhibition": -20, "Z score": 3.16}, {"smiles": "CC1(C)COCCN1S(=O)(=O)c1cnc2sccn12", "% Inhibition": -7, "Z score": 1.41}, {"smiles": "O=S(=O)(Nc1noc2ccc(C(F)(F)F)cc12)c1cnn(C2CCOCC2)c1", "% Inhibition": 4, "Z score": -0.44}, {"smiles": "Cc1ccc(CNC(=O)CCn2cnc3oc(C)c(C)c3c2=O)o1", "% Inhibition": 0, "Z score": -0.03}, {"smiles": "N#CC1CN(c2nc3ccccc3s2)CC12C(=O)Nc1ccccc12", "note": "(configuration not stated)", "% Inhibition": -15, "Z score": 2.25}, {"smiles": "O=C(Cn1cccc1-c1nc(-c2ccc(F)cc2)no1)NCc1cccc(Cl)c1", "% Inhibition": 5, "Z score": -0.62}, {"smiles": "Cn1cc(-n2cc(C(=O)NCCOCC(F)(F)F)ccc2=O)cn1", "% Inhibition": 5, "Z score": -0.86}, {"smiles": "CCn1ccc(C(=O)N2CC3(C[C@H](N4CCCCC4)CO3)C2)n1", "% Inhibition": -11, "Z score": 1.77}, {"smiles": "CNC(=O)c1ccccc1OCc1noc2c1COCC2", "% Inhibition": 0, "Z score": -0.06}, {"smiles": "COc1ccc(C(=O)Nc2cncc(C(C)C)c2)o1", "% Inhibition": 2, "Z score": -0.18}, {"smiles": "Cc1cnc(C2CCC2)n1[C@H]1CCCN(C(=O)c2cccc(C#N)c2)C1", "% Inhibition": -19, "Z score": 2.42}, {"smiles": "CC1CCN(C(=O)c2ccc3[nH]nnc3c2)C2CCCCC12", "note": "(configuration not stated)", "% Inhibition": -5, "Z score": 0.93}, {"smiles": "Cc1nc(NC(=O)N2CCOC3(CCC3)C2)ccc1Br", "% Inhibition": -15, "Z score": 2.32}, {"smiles": "COc1cc(C(=O)N2CCN(CC3CC3)[C@@H]3CS(=O)(=O)C[C@@H]32)ccc1C", "% Inhibition": -5, "Z score": 1.07}, {"smiles": "Cc1c(CC(=O)N2CCNC(=O)C2)c2c(n1Cc1ccccc1F)CCCC2=O", "% Inhibition": -2, "Z score": 0.32}, {"smiles": "C[C@@H](c1nc(-c2cccs2)no1)N1CCNCC1", "% Inhibition": -14, "Z score": 1.78}, {"smiles": "Clc1ccc2oc(NCc3c[nH]nc3-c3cccnc3)nc2c1", "% Inhibition": 0, "Z score": 0}, {"smiles": "CC(C)Cc1cc(C(=O)N2CCn3cncc3C2)on1", "% Inhibition": 0, "Z score": 0.08}, {"smiles": "CCN1CCN(c2cc(C(=O)O)c3cc(NS(=O)(=O)c4cc(F)ccc4C)ccc3n2)CC1", "% Inhibition": -12, "Z score": 1.94}, {"smiles": "Cc1cc(C)n(CC(=O)N[C@H]2CCCN(CCCc3ccccc3)C2)n1", "% Inhibition": -12, "Z score": 1.63}, {"smiles": "COCCN1C[C@]2(CCCN(C(=O)c3cc(-c4ccsc4)n[nH]3)C2)CCC1=O", "% Inhibition": -14, "Z score": 1.45}, {"smiles": "CC(C)(C)CN(C(=O)COC[C@H]1CCCO1)c1ccccn1", "% Inhibition": -11, "Z score": 1.44}, {"smiles": "C=CC[C@@H]1N(CCN2C(=O)CCC2=O)CCCC1(C)C", "% Inhibition": 2, "Z score": -0.35}, {"smiles": "Cc1cc(N2CCOCC2)ccc1NC(=O)C(=O)NCCc1ccc2c(c1)OCO2", "% Inhibition": 3, "Z score": -0.45}, {"smiles": "COc1ccccc1CCc1nc2ccccc2n1C1CCNCC1", "% Inhibition": 1, "Z score": -0.22}, {"smiles": "CN(CCNC(=O)Cc1ccc(F)c(Br)c1)C1CC1", "% Inhibition": -3, "Z score": 0.35}, {"smiles": "CCN1CCCn2nc([C@H]3CCCN(Cc4cc(C)nn4C)C3)cc2C1=O", "% Inhibition": -12, "Z score": 2.28}, {"smiles": "c1ccc2c(N[C@H]3CCOC[C@@H]3OCC3CC3)nccc2c1", "% Inhibition": -10, "Z score": 1.1}, {"smiles": "O=c1c2ccccc2nnn1Cc1nnc(-c2ccccc2Br)o1", "% Inhibition": -5, "Z score": 0.59}, {"smiles": "CCN(C[C@H]1CCOC1)C(=O)c1cc(-c2ccco2)[nH]n1", "% Inhibition": -13, "Z score": 1.99}, {"smiles": "CCn1nc(C)c(CNS(=O)(=O)CC[C@H]2CCCO2)c1C", "% Inhibition": -1, "Z score": 0.18}, {"smiles": "COc1ccc([C@@H]2CCCN2C(=O)CCc2c(C)noc2C)cc1OC", "% Inhibition": -6, "Z score": 1.02}, {"smiles": "CC1CCN([C@@H]2[C@H](O)[C@H](CO)O[C@@H]2CNS(=O)(=O)c2cccs2)CC1", "% Inhibition": 15, "Z score": -1.77}, {"smiles": "O=C(Nc1cnccc1O)[C@@H]1CCN(c2cc(Cl)ccc2Cl)C1=O", "% Inhibition": -5, "Z score": 0.84}, {"smiles": "Cc1nc2c(n1CCO)CC[C@H](NC(=O)c1ccn3ccccc13)C2", "% Inhibition": -7, "Z score": 1.26}, {"smiles": "CN1CCc2[nH]nc(C(=O)N(C)Cc3nc4cc(Cl)ccc4[nH]3)c2C1", "% Inhibition": 5, "Z score": -0.86}, {"smiles": "CCc1noc(NCc2cc(F)ccc2F)c1C", "% Inhibition": -21, "Z score": 2.48}, {"smiles": "CN(C)[C@@]1(c2nnnn2C2CCCC2)CCN(C(=O)c2ccccn2)C1", "% Inhibition": -11, "Z score": 1.31}, {"smiles": "c1ccc(C2=C(CN3CCCCC3)[C@@H](c3ccccc3)c3ccccc3O2)cc1", "% Inhibition": -8, "Z score": 0.9}, {"smiles": "Cc1cccc(C)c1NCC(=O)NC[C@H](O)c1ccsc1", "% Inhibition": -1, "Z score": 0.05}, {"smiles": "O=C(C1CCC1)N1CCOC[C@H](Oc2cnccn2)C1", "% Inhibition": 35, "Z score": -3.99}, {"smiles": "Cc1c(C(=O)Oc2ccccc2C(C)C)cnn1-c1ccncc1", "% Inhibition": 8, "Z score": -0.79}, {"smiles": "CC1CCCCCN1C(=O)C1CC2C=CC1C2", "note": "(configuration not stated)", "% Inhibition": -17, "Z score": 1.52}, {"smiles": "CCOC(=O)Cc1csc(NC(=O)NC[C@@H](CO)Cc2ccc(OC)c(O)c2)n1", "% Inhibition": 5, "Z score": -0.92}, {"smiles": "C[C@H]1c2ccsc2CCN1Cc1nnc(C(C)(C)C)o1", "% Inhibition": -5, "Z score": 0.58}]}]}
